In PubChem BioAssay AID624296 (National Center for Advancing Translational Sciences (NCATS), 2012):
Out of some 350,000 compounds screened, about 9,900 (2.8%) were called active. The inconclusive results got no clear call from the source; some entries with a clear call stand among them for comparison. Calls come from the whole dose curve; as a rule, active = well fitted activation curve with a large enough effect; inconclusive = small, poorly fitted or top-dose-only effect; inactive = no such curve, though single readings can be large or run the other way. Potencies of inconclusive entries are left out as doubtful fits.

Assay: A quantitative high throughput screen for small molecules that induce DNA re-replication in MCF 10a normal breast cells. For activity, positive = re-replication: % of control where 0% means no effect. Note: nearly all actives have a fitted effect of over 50% in size.
Conditions: MCF 10A DNA re-replication, Hoechst nuclear intensity, 48 h; activity, positive = re-replication: at 46.1 µM (top of the series)
Potency is the fitted concentration of half-maximal effect; tags give direction and shape of the fitted curve.

SMILES	Potency	activity, positive = re-replication
COc1ccc(C(=O)CSc2nnc(-c3cc(C)cc(C)c3)o2)cc1	inconclusive [activator, full curve, poor fit]	
CN(C)c1ncnc2c1NC1=C(S2)C(=NCCCC(=O)O)CC(C)(C)C1	inconclusive [activator, single point]	
CCN(CC)CCNC(=O)c1ccc(Cl)c(S(=O)(=O)N2CCCCCC2)c1	inconclusive [activator, partial curve, poor fit]	
COc1ccc(-c2cc3ncc(-c4ccccc4)c(N)n3n2)cc1	inactive	
COc1cc2c(c(OC)c1OC)-c1ccc(OC)c(=O)cc1C(N)CC2 (stereo not given)		inconclusive: 74.5% [activator]
OC1CCN(Cc2nc(Cc3ccccc3Cl)no2)CC1	inactive	
Cc1ccc(S(=O)(=O)N(C)C)cc1NC(=S)NC(C)CCCC(C)C (stereo not given)	inconclusive [activator, partial curve, poor fit]	
CCc1ccc(-c2cc(C(=O)N3N=C(C(F)F)CC3(O)C(F)F)c3ccccc3n2)cc1 (stereo not given)	active: 9.2 µM	
CCOc1ccc(N(C)Cc2cc(=O)oc3ccc(OC)cc23)cc1	inconclusive [activator, single point]	
Cc1ccc(-c2nc3cccnc3o2)cc1NC(=O)COc1ccc(C(C)(C)C)cc1	active: 18.4 µM	
COc1ccc(C(=O)N2CCN(c3cccc(Cl)c3)CC2)cc1	inactive	
CCn1nc(C)cc1C(=O)N1CCCC(N2CCN(Cc3ccc4c(c3)OCO4)CC2)C1 (stereo not given)	inactive	
CCc1cccc(NC(=S)N(CCN(C)C)C(C)c2ccncc2)c1 (stereo not given)	inactive	
O=C(Nc1nnc(-c2ccc3c(c2)CCCC3)o1)c1c(F)cccc1F	inactive	
CCCCCSc1nnc(-c2cc(Br)ccc2N)c(=O)[nH]1	inconclusive [activator, partial curve, poor fit]	
O=C(OCc1ccc(Br)cc1)c1cnc(Cl)c(Cl)c1	inconclusive [activator, single point]	
COC(=O)c1ccc(CN2CCC(CO)(Cc3ccccc3Cl)CC2)cc1	inconclusive [activator, single point]	
Cc1cc(C)cc(NC(=S)N2CCN(c3ncc(C(F)(F)F)cc3Cl)CC2)c1	inconclusive [activator, partial curve, poor fit]	
COc1cc(SC)ccc1C(=O)NCCOc1ccc(C)c(C)c1	inactive	
CCN(CC)c1ccc(/C=C/C(=O)c2ccc(Br)cc2)cc1	inconclusive [activator, single point]	
O=C(c1ccccc1)c1cnc(Nc2ccccc2Cl)s1	inconclusive [activator, single point]	
Cc1noc(C)c1CSCC(=O)Nc1nc(-c2ccc(F)c(F)c2)cs1	inconclusive [activator, partial curve, poor fit]	
Cc1ccc(Sc2ccc(S(=O)(=O)Nc3ccc(CC(=O)O)cc3)cc2)cc1C	inconclusive [activator, single point]	

SMILES	Potency	activity, positive = re-replication
CC(C)(C)C(=O)Nc1cc(C(F)(F)F)ccc1N1CCOCC1	inactive	
Cc1cc(C)c(S(=O)(=O)N(CC(=O)O)C2CCCCC2)c(C)c1	inconclusive [activator, single point]	
COC(=O)c1ccc(CSc2nc3ccc(C)cc3[nH]2)o1	inactive	
COc1ccc(C2CC(=O)C(CS(=O)(=O)c3ccccc3)C(=O)C2)cc1 (stereo not given)	inconclusive [activator, single point]	
COc1cc(C(C(=O)NC2CCCCC2)N(C(=O)c2snc(C(N)=O)c2N)c2ccc(C)cc2)ccc1O (stereo not given)	inconclusive [activator, partial curve, poor fit]	
C/C(=C\c1cc2ccccc2o1)C1Nc2cccc3cccc(c23)N1	inconclusive [activator, partial curve, poor fit]	
COc1cc(NC(=O)Nc2ccccc2)c(OC)cc1NC(=O)CN1CCCCC1	inconclusive [activator, single point]	
O=S(=O)(NCC(Nc1ccc(Cl)cc1)c1ccccc1)c1ccccc1 (stereo not given)	active: 4.61 µM	
COC(=O)/C=C/COc1ccccc1[N+](=O)[O-]	inconclusive [activator, single point]	
COc1cc(/C=N/NC(=O)c2cc(-c3ccccc3)sc2N)cc(OC)c1OC	inactive	
Cc1ccc(C(C)C)c(OCCSc2nc3ccccc3n2CC(=O)O)c1	inconclusive [activator, single point]	
CCC(=O)Oc1ccc2ccccc2c1CNC(=O)c1ccccc1	inconclusive [activator, single point]	
CC1(C)CC(=O)C2=C(C1)c1c(ccc3ccccc13)NC2c1ccc(Br)o1 (stereo not given)		inactive: 21.5% [at 9.22 µM]
CCCCCCCCCn1c2c(c(=N)c3c1CCC3)CCC2	inconclusive [activator, partial curve, poor fit]	
COCCn1c(C)cc(/C=C2/NC(=O)N(Cc3ccc(C)cc3)C2=O)c1C	inactive	
O=C(Cn1c(SCC(=O)N2CCc3ccccc32)nc2ccccc21)NC1CCCC1	inactive	
Cc1ccc2c(CC(=O)NCc3ccco3)coc2c1C	active: 11.6 µM	
CCCCNS(=O)(=O)c1ccc(S(=O)(=O)N2CCC3(CC2)OCCO3)cc1	inactive	
O=C(c1nc(-c2ccccc2)n(-c2ccccc2)n1)N1CCCCCC1	inconclusive [activator, partial curve, poor fit]	
O=C(NC(=S)NCc1cccnc1)c1cc2ccccc2o1	inconclusive [activator, partial curve, poor fit]	
CCCOc1ccc(C(=O)Nc2nc(C)c(Cc3ccc4c(c3)OCO4)s2)cc1	inconclusive [activator, full curve, poor fit]	
Cc1ccc(/C(N)=N/OC(=O)N2c3ccccc3Sc3ccccc32)cc1	active: 14.1 µM	
